Structures are written as SMILES. Among all 310,000 compounds or so, about 2,200 (0.71%) showed an effect of 50% or more. The effect is printed as a negative number. The list shows a part of the results.

In this experiment the target is human ether-à-go-go-related gene (hERG) potassium channel (human, UniProt Q12809). Kind of experiment: primary screen, population patch clamp on CHO cells stably expressing hERG.
Sequence of human ether-à-go-go-related gene (hERG) potassium channel (Q12809 whole entry, looked up): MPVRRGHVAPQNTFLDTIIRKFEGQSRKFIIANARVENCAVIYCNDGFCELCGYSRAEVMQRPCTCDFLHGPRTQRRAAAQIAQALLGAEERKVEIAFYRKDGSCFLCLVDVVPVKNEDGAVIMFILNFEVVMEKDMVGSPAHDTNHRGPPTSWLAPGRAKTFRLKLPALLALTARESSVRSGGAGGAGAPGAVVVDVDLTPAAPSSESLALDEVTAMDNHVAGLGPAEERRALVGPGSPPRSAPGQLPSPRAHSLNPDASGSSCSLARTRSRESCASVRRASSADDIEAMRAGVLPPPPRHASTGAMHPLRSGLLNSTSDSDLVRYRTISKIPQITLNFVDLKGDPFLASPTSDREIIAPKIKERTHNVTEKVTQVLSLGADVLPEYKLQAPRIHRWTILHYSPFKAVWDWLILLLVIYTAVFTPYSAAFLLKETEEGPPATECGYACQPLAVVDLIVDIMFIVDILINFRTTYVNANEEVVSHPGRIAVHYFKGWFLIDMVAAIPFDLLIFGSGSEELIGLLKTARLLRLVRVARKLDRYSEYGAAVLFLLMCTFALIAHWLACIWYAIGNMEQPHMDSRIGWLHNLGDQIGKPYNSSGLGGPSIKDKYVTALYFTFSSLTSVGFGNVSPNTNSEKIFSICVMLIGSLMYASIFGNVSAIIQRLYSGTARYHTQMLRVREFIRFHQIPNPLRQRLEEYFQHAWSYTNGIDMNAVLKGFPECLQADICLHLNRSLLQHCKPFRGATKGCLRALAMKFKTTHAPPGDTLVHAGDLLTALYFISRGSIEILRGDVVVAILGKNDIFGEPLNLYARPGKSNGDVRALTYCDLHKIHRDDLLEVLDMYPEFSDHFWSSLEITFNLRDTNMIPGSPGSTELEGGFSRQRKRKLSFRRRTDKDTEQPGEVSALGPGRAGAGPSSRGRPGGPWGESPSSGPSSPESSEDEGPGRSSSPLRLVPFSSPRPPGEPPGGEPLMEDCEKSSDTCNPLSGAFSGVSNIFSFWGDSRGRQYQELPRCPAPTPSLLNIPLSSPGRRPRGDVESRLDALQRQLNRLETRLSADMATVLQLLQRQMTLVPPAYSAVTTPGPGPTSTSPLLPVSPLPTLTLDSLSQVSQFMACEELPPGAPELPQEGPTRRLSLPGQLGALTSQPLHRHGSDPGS
As for `O=C1NC(=O)C2(COC(c3ccncc3)OC2)S1` (centres unmarked), the “hERG current change (%, negative = inhibition) at 1uM” value is recorded as 17%.
Regarding `CCOc1ccc(N(CC(=O)Nc2ccc(OC)cc2)S(=O)(=O)c2c(C)noc2C)cc1`, the “hERG current change (%, negative = inhibition) at 1uM” value came out at 14.1%.
Turning to `Cc1ccc(S(=O)(=O)c2ccc(Oc3ccccc3)cc2)cc1`, the “hERG current change (%, negative = inhibition) at 1uM” value came out at 19.4%.
Turning to `COc1ccc(CN2CCNC(=O)C2CC(=O)NCCCC2CCCC2)c(C)c1C` (centres unmarked), the “hERG current change (%, negative = inhibition) at 1uM” value was 0.33%.
Consider `COc1ccc(NC2CCCN(C(=O)CCOc3ccccc3)C2)cc1` (centres unmarked), for which the “hERG current change (%, negative = inhibition) at 1uM” value stood at 4.87%.
For `O=C(COc1ccc(C(=O)c2ccc(F)cc2)cc1)NCc1ccc(F)cc1`, the “hERG current change (%, negative = inhibition) at 1uM” value amounted to 9.63%.
Take `COc1cc(CNCc2cccc(OC)c2OC)cc(OC)c1.O=C(O)C(=O)O`: the “hERG current change (%, negative = inhibition) at 1uM” value worked out at 15.9%.
`COc1cc(OC)cc(C(=O)Nc2ccc3c(c2)CCCN3C(=O)c2cccs2)c1`: the “hERG current change (%, negative = inhibition) at 1uM” value was 9.55%.
With `CC1(C)CN=C(N(Cc2ccccc2)C(=O)Nc2ccccc2)S1` the figure was 9.46%.
As to `Cc1oc(-c2ccccc2)cc1C(=O)NCc1ccncc1`, the “hERG current change (%, negative = inhibition) at 1uM” value was 14.5%.
Regarding `COc1cc(OC)cc(C(=O)OCC(=O)c2cc(C)n(CC3CCCO3)c2C)c1` (centres unmarked), the “hERG current change (%, negative = inhibition) at 1uM” value is recorded as -14.6%.
As to `COc1ccc(-c2[nH]c(-c3ccc(F)cc3)nc2SCC(=O)NCc2ccco2)cc1OC`, the “hERG current change (%, negative = inhibition) at 1uM” value is given as 19.9%.
`COc1ccc([C@H]2CC(=O)C=C(c3cccc(OC(F)(F)F)c3)C2)cc1`: the “hERG current change (%, negative = inhibition) at 1uM” value is 8.61%.
The figure for `Brc1ccc(Sc2cnc3ccccc3n2)cc1` is 8.32%; for `COC(=O)NC(NS(=O)(=O)c1ccccc1)(C(=O)OC)C(F)(F)F` (centres unmarked) it is 7.51%.
`COc1ccccc1NS(=O)(=O)c1cc(C(=O)NCc2ccncc2)ccc1C`: the “hERG current change (%, negative = inhibition) at 1uM” value is recorded as -1.23%.
As for `C=CCn1c(=N)c(C(=O)NCCCOC)cc2c(=O)n3cc(C)ccc3nc21`, the “hERG current change (%, negative = inhibition) at 1uM” value is given as -41.9%.
On to `Cc1cccc(NC(=O)CSc2nnc3ccc(-c4ccccn4)nn23)c1`, for which the “hERG current change (%, negative = inhibition) at 1uM” value came to 6.41%.
As to `COC(=O)CSc1snnc1-c1ccc(Cl)cc1Cl`, the “hERG current change (%, negative = inhibition) at 1uM” value is 10.2%.
With `O=C(Nc1cc2c3c(c1)CC(=O)N3CCC2)c1ccc(Br)o1` the figure was -1.28%; with `CCCN(CC(=O)Nc1cc(Cl)ccc1Cl)C(=O)c1ccc(N2CCCC2=O)cc1`, -0.958%.
With `OCC1(Cc2ccc(Cl)cc2)CCN(Cc2ccccc2F)CC1` the figure was -18.4%; with `CCOC(=O)Nc1cccc(NC(=O)c2ccccc2F)c1`, 2.12%; with `O=C(c1ccc2[nH]c3c(c2c1)CCCC3)N1CCN(c2ccc(F)cc2)CC1`, 10%.
`Clc1ccc(-n2ncc3c(N4CCCC4)ncnc32)cc1`: the “hERG current change (%, negative = inhibition) at 1uM” value was determined as 3.49%.
The figure for `COc1ccc(CCN2CC(C(=O)Nc3ccccc3F)CC2=O)cc1OC` (centres unmarked) is 2.93%.
With `O=C(N/N=C/C=C/c1ccccc1)C(O)c1ccccc1` (centres unmarked), the “hERG current change (%, negative = inhibition) at 1uM” value is 5.58%.
The figure for `Nc1nnc(SCc2ccc3c(c2)OCO3)s1` is 4.9%.
With `COc1ccccc1CC(Cc1nc2ccccc2[nH]1)c1nc2ccccc2[nH]1` (centres unmarked), the “hERG current change (%, negative = inhibition) at 1uM” value is given as -1.64%.
With `S=C(NCCc1ccccc1)NCCc1cnc[nH]1`, the “hERG current change (%, negative = inhibition) at 1uM” value stood at 11.3%.
Consider `O=C(c1ccc(N2C(=O)CCC2=O)cc1)N1CCN(c2ccccc2)CC1`, for which the “hERG current change (%, negative = inhibition) at 1uM” value turned out to be 14.2%.
Take `COC(=O)C(CC(C)C)NC(=O)/C=C/c1ccccc1Cl` (centres unmarked): the “hERG current change (%, negative = inhibition) at 1uM” value is given as 10.6%.
On to `COc1ccc(/C=N/Nc2cc(OC)ncn2)cc1`, for which the “hERG current change (%, negative = inhibition) at 1uM” value is 14.6%.
On to `CC(C)(C)NC(=O)CSc1nc(-c2ccccc2)c(-c2ccccc2)[nH]1`, for which the “hERG current change (%, negative = inhibition) at 1uM” value was -2.4%.
The figure for `CSc1ccccc1NC(=O)CN(C)C(=O)c1c(C)nn(Cc2ccccc2)c1C` is -0.458%.
Consider `O=C(CSc1nc2ccccc2c(=O)n1-c1ccc(F)cc1)NC1CC1`, for which the “hERG current change (%, negative = inhibition) at 1uM” value was 13%.
For `CC(C)(C)N(Cc1cc2ccccc2[nH]c1=O)C(=O)c1cccc([N+](=O)[O-])c1`, the “hERG current change (%, negative = inhibition) at 1uM” value was found to be 11.4%.
With `CCOC(=O)c1[nH]c(CSc2nnc(-c3ccc(OC)cc3)o2)c(C(=O)OCC)c1C` the figure was 15.6%; with `Cc1cc(C(=O)NC2CCCN(Cc3ccccc3F)C2)n[nH]1` (centres unmarked), 16.1%; with `NS(=O)(=O)c1ccc(NC(=O)COC(=O)CCc2ccccc2)cc1`, 20.5%.
Regarding `COc1ccc(OC)c(NC(=O)C(=O)NNC(=O)COc2ccc(Br)cc2C)c1`, the “hERG current change (%, negative = inhibition) at 1uM” value worked out at 14.8%.
With `Cc1cc(=O)n(CCC(=O)O)c2ccccc12` the figure was 1.97%.
In the case of `COC(=O)/C(=C\C=C\c1ccccc1)NC(=O)c1ccccc1`, the “hERG current change (%, negative = inhibition) at 1uM” value is on record as 10.1%.
The figure for `CC(=O)N1CCN(CC(O)COc2ccc(OCc3ccccc3)cc2)CC1` (centres unmarked) is 7.46%.
With `Cc1nc(C)n(C(Oc2ccc(Cl)cc2Cl)C(=O)C(C)(C)C)n1` (centres unmarked) the figure was 6.26%.
For `O=C(Nc1ccccc1F)c1ccccc1C(=O)Nc1ccccc1F`, the “hERG current change (%, negative = inhibition) at 1uM” value is given as 16.8%.
As for `COc1ccc(NC(=O)N(C2CCCCC2)C(C)c2cccnc2)c(OC)c1` (centres unmarked), the “hERG current change (%, negative = inhibition) at 1uM” value is 3.85%.
Turning to `CCOC(=O)c1ccccc1NC(=O)CSc1nnnn1C1CCCCC1`, the “hERG current change (%, negative = inhibition) at 1uM” value was found to be 2.49%.
The figure for `CCn1ncc(C2=NOC(C(=O)Nc3c(C)nn(Cc4ccc(F)cc4)c3C)C2)c1C` (centres unmarked) is 14.7%; for `Cn1ccnc1SCC(=O)Nc1ccc2c(c1)COC2=O` it is 15.2%; for `Cc1ccc2c(c1)C1CN(C)CCC1N2CC(=O)N(C)c1ccccc1` (centres unmarked) it is 5.81%.
For the compound `C/C(=N\NS(=O)(=O)c1ccc(C(C)(C)C)cc1)c1ccccc1`, the “hERG current change (%, negative = inhibition) at 1uM” value was 13.8%.
As for `COc1cccc(C(=O)NCCS(=O)(=O)NCCc2ccccc2)c1`, the “hERG current change (%, negative = inhibition) at 1uM” value was 4.91%.
As to `N#CCSc1n[nH]c2nc3c(c(=O)n12)C1(CCCC1)Cc1ccccc1-3`, the “hERG current change (%, negative = inhibition) at 1uM” value turned out to be 6.77%.
With `O=c1[nH]c2ccccc2nc1-c1cccs1` the figure was 3.79%.
Turning to `CCN(Cc1ccccc1)C(=O)CCCOc1ccccc1`, the “hERG current change (%, negative = inhibition) at 1uM” value was determined as 7.59%.
Consider `CC1(C(=O)O)CCC(C(=O)NNC(=O)c2ccccc2O)C1(C)C` (centres unmarked), for which the “hERG current change (%, negative = inhibition) at 1uM” value amounted to 6.95%.
As for `COc1ccccc1NC(=O)COc1cc(C)nc(C(C)C)n1`, the “hERG current change (%, negative = inhibition) at 1uM” value was 10.9%.
`COc1ccc(-n2ncc3c(NCCN4CCOCC4)ncnc32)cc1`: the “hERG current change (%, negative = inhibition) at 1uM” value is 7.57%.
With `CC(C)C[C@H](NC(=O)c1nc[nH]c1C(=O)N[C@@H](CCCCNC(=O)OC(C)(C)C)C(=O)OC(C)(C)C)C(=O)OCc1ccccc1` the figure was 7.99%; with `O=C(CSc1nc2ccc(NC(=O)c3ccccc3C(=O)O)cc2s1)Nc1ccc(F)c([N+](=O)[O-])c1`, 14.6%.
For the compound `NC(=O)N=Nc1c(O)[nH]c2c(Br)cc(Br)cc12`, the “hERG current change (%, negative = inhibition) at 1uM” value amounted to 8.25%.
With `O=C(O)COC(=O)C1C(c2ccccc2)C(C(=O)O)C1c1ccccc1` (centres unmarked), the “hERG current change (%, negative = inhibition) at 1uM” value turned out to be 6.51%.
For the compound `O=C(Nc1nncs1)C1CC(=O)N(CCc2ccc(F)cc2)C1` (centres unmarked), the “hERG current change (%, negative = inhibition) at 1uM” value is on record as 27.7%.
As for `Cc1ccc(N(CC2CO2)S(=O)(=O)c2ccccc2[N+](=O)[O-])cc1` (centres unmarked), the “hERG current change (%, negative = inhibition) at 1uM” value turned out to be 11%.
With `COC(=O)C1=C(c2ccc(Cl)c(C(F)(F)F)c2)C[C@@H]2CC[C@H]1N2C(=O)N1CCC(C)CC1`, the “hERG current change (%, negative = inhibition) at 1uM” value is listed as 10.3%.
For `Cc1ccc(S(=O)(=O)NCCN=Cc2ccc(N(C)C)cc2)cc1`, the “hERG current change (%, negative = inhibition) at 1uM” value is listed as 20.4%.
On to `CC(C)OC(=O)c1cc2ccccc2[nH]1`, for which the “hERG current change (%, negative = inhibition) at 1uM” value is given as 3.75%.
With `Cc1ccc(C)c(NC(=O)COC(=O)CCCN=C2NS(=O)(=O)c3ccccc32)c1` the figure was -0.821%.
`CCN(CC)c1ccc(C2=NNC(=O)CC2C)cc1[N+](=O)[O-]` (centres unmarked): the “hERG current change (%, negative = inhibition) at 1uM” value came to 15.8%.
`CCn1cc(C(=O)N2CCN(c3ccc(F)cc3)CC2)c2cc(OC)c(OC)cc2c1=O`: the “hERG current change (%, negative = inhibition) at 1uM” value was -41.7%.
As for `Cc1ccc(C(C)C)c(OCCn2c(=O)oc3ccccc32)c1`, the “hERG current change (%, negative = inhibition) at 1uM” value turned out to be 15.9%.
For `CC(C)CCC(C)NC(=O)C1CCN(S(=O)(=O)/C=C/c2ccccc2)CC1` (centres unmarked), the “hERG current change (%, negative = inhibition) at 1uM” value is listed as 12.3%.
In the case of `Cc1ccccc1CN1C2=NCCCN2c2ccccc21.Cl`, the “hERG current change (%, negative = inhibition) at 1uM” value is -27.3%.
For the compound `O=C(NCC1CCCO1)c1cn(-c2ccccc2)nc1-c1ccccc1` (centres unmarked), the “hERG current change (%, negative = inhibition) at 1uM” value was determined as 13.4%.
Take `COc1ccccc1Oc1ccccc1C(=O)O`: the “hERG current change (%, negative = inhibition) at 1uM” value is given as -3.73%.
Turning to `Cc1cccc(C)c1NC(=O)CSc1nc2ccccc2c(=O)[nH]1`, the “hERG current change (%, negative = inhibition) at 1uM” value is 12.8%.
The figure for `CCN1C(=O)C(CC(=O)Nc2ccc(OC)cc2)N(CCN2CCOCC2)C1=S` (centres unmarked) is 2.94%.
For the compound `COc1ccc(NC(=O)CN(C)CC(=O)NC2CCCCC2C)cc1` (centres unmarked), the “hERG current change (%, negative = inhibition) at 1uM” value was found to be 11.1%.
With `CC1(C)Cc2c(sc3c2c(N)nc(=S)n3Cc2ccccc2)CO1` the figure was -17.9%; with `O=C(c1ccccc1)c1ccc(CN2C(=O)c3ccccc3C2=O)o1`, 7.28%; with `CCC(C)Nc1c([N+](=O)[O-])cc(C)cc1[N+](=O)[O-]` (centres unmarked), 19.1%.
Consider `Cc1ccc(C)c(S(=O)(=O)NCC(=O)Nc2ccc3c(c2)OCO3)c1`, for which the “hERG current change (%, negative = inhibition) at 1uM” value came out at 10.6%.
As for `COc1ccc(CNC(=O)COC(=O)CCC(=O)c2cccs2)cc1`, the “hERG current change (%, negative = inhibition) at 1uM” value is -0.413%.
For `O=C(/C=C/c1ccc(Cl)cc1)NCc1cccs1`, the “hERG current change (%, negative = inhibition) at 1uM” value stood at 11.6%.
The figure for `CCOC(=O)N1CCC(NC(=O)CCc2c(C)nc3c(c(C)nn3C(C)(C)C)c2C)CC1` is 3.32%; for `CCOc1ccccc1NC(=O)CNS(=O)(=O)c1ccc2nc(C)sc2c1` it is 10.8%; for `COCc1nnc(NC(=O)c2ccc(S(=O)(=O)N3CCCCCC3)cc2)o1` it is -2.48%.
With `Fc1ccc2c(c1)C(c1cccnc1)=NNC(c1cccs1)=N2`, the “hERG current change (%, negative = inhibition) at 1uM” value is -9.86%.

Values taken from article PMC4336329 (PLoS ONE, 2015).
